Assay results taken from the supplement of paper PMC10723795.
The other results are listed elsewhere or left out.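 How the source made its calls: active = more than 2 SD below the DMSO mean: under 0.85 at 10 µM or 0.885 at 1 µM; inactive = the rest.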 Many values rest on one well or one pass, so single values are uncertain. Where a SMILES comes first, the peptide text is derived from it. [ ]: non-standard residue; d: D form. Dip = N[C@H](C(=O)O)C(c1ccccc1)c1ccccc1

Test system: RPE1
Assay: nucleolar normality score relative to DMSO (fraction of DMSO control); RPE1 is a non-cancer human cell line; higher = more normal nucleoli (less nucleolar stress)
Conditions: 24 h
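Further: fixed cells immunolabelled for nucleolin and UBF, 40 image fields per well in 384-well plates, per-cell score = nucleolin nucleolar/nucleoplasm intensity ratio divided by the matching UBF ratio.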

SMILES | nucleolar normality score (1 µM) | nucleolar normality score (10 µM)
C#CCC(Cc1cnc2nc(N)nc(N)c2n1)c1ccc(C(=O)N[C@@H](CCC(=O)O)C(=O)O)cc1 (stereo not given in full) [Pralatrexate] | active: 0.702 | active: 0.794
O=C(NOCC(O)CO)c1cc(Br)c(F)c(F)c1Nc1ccc(I)cc1F (stereo not given) | inactive: 1.06 | inactive: 1.09
CC(C)c1c(-c2ccccc2)nc2c(C#N)c[nH]n2c1=O | inactive: 0.903 | inactive: 1.07
C=C(C)[C@@H]1CC=C(CO)CC1 [Perillyl alcohol] | inactive: 1 | inactive: 1.02
CN(C)C/C=C/C(=O)Nc1cc2c(Nc3ccc(F)c(Cl)c3)ncnc2cc1O[C@H]1CCOC1 [Afatinib (BIBW2992) Dimaleate] | inactive: 1.02 | inactive: 1.09
C=C1CC[C@H]2C(=C)CC[C@H]3C(=C)C(=O)O[C@@H]3[C@@H]12 [Dehydrocostus Lactone] | inactive: 1.02 | inactive: 0.896
CC(CN(C)C)Oc1nc(Nc2cc3cccc(Cl)c3cn2)cnc1C#N (stereo not given) | inactive: 1.01 | inactive: 1.06
CNC(=O)c1ccc(C)c(-n2c(C)cc(OCc3ccc(F)cc3F)c(Br)c2=O)c1 | inactive: 1.02 | inactive: 1.06
Cc1cc(OCc2nnc(SC3CCCC3)n2-c2cccnc2)ccc1-c1ccc(S(C)(=O)=O)cc1 | inactive: 0.962 | inactive: 1.02
NC(=O)c1cccc(N)c1 [INO-1001 (3-Aminobenzamide)] | inactive: 1.03 | inactive: 1.03
Cc1ccc(-n2nc(C(C)(C)C)cc2NC(=O)Nc2ccc(OCCN3CCOCC3)c3ccccc23)cc1 [Doramapimod (BIRB 796)] | inactive: 1.11 | inactive: 1.07
C=CC(=O)Nc1cccc(Oc2nc(Nc3ccc(N4CCN(C)CC4)cc3)nc3ccsc23)c1 | inactive: 0.975 | inactive: 0.992
Nc1ncnc2n[nH]c(Nc3ccc(F)cc3)c12 | inactive: 0.961 | inactive: 1.04
C[C@H](NC(=O)c1c(N)nn2cccnc12)c1cc2cccc(C#Cc3cnn(C)c3)c2c(=O)n1-c1ccccc1 | inactive: 0.983 | inactive: 0.978
C[C@@H]1CCCCCCCCCCCCC(=O)C1 [Muscone] | inactive: 0.96 | inactive: 1.02
Cc1ccc2nc(NC(=O)CSc3nc4c(c(=O)n3-c3ccccc3)SCC4)sc2c1 | inactive: 1.03 | inactive: 1.01
Cn1cc(-c2ccc3c(c2)CCN3C(=O)Cc2cccc(C(F)(F)F)c2)c2c(N)ncnc21 | inactive: 1.01 | inactive: 1.04
Oc1cccc(-c2nc(N3CCOCC3)c3oc4ncccc4c3n2)c1 | inactive: 0.971 | inactive: 1.03
C=CS(=O)(=O)NC1CCN(C(=O)CNc2cc(I)c(Cl)cc2OC)CC1 [K-Ras(G12C) inhibitor 9] | inactive: 1.02 | inactive: 1.02
CCN(CC)CCCCNc1ncc2cc(-c3cc(OC)cc(OC)c3)c(NC(=O)NC(C)(C)C)nc2n1 | inactive: 1.07 | inactive: 1.15
NCCCC[C@H](NC(=O)[C@@H](NC(=O)[C@H](Cc1c[nH]c2ccccc12)NC(=O)[C@H](CCCCN)NC(=O)[C@H](CCCCN)NC(=O)[C@H](Cc1c[nH]c2ccccc12)NC(=O)[C@H](Cc1c[nH]c2ccccc12)NC(=O)[C@H](CCCCN)NC(=O)[C@@H](N)CCCCN)C(c1ccccc1)c1ccccc1)C(N)=O (H-KKWWKKW[Dip]K-NH2) | inactive: 0.995 | inactive: 1.09
CCS(=O)(=O)c1cccc(-c2cc(C(=O)NC3CCN(C)CC3)c(C)c3[nH]c4ncc(C)cc4c23)c1 | inactive: 0.987 | inactive: 0.912
O=C(/C=C/c1ccc(O)c(O)c1)O[C@H](Cc1ccc(O)c(O)c1)C(=O)O [Rosmarinic acid] | inactive: 0.984 | inactive: 0.979
NC(=O)C1CCCc2c1[nH]c1ccc(Cl)cc21 (stereo not given) [Selisistat (EX 527)] | inactive: 1.04 | inactive: 1.08
COc1ccc(-c2cc(=O)c3c(O)c(OC)c(O)cc3o2)cc1OC [Eupatilin] | inactive: 0.992 | active: 0.825
C[C@]12CC[C@@H]3c4ccc(O)cc4C[C@@H](CCCCCCCCC[S+]([O-])CCCC(F)(F)C(F)(F)F)[C@H]3[C@@H]1CC[C@@H]2O (stereo not given in full) [Fulvestrant] | inactive: 0.975 | inactive: 0.982
Clc1ccc(C2(c3ccc(-c4cn[nH]c4)cc3)CCNCC2)cc1 | inactive: 1.02 | inactive: 1.03
NC1(Cc2ccc(Cl)cc2)CCN(c2ncnc3[nH]ccc23)CC1 | inactive: 1.05 | inactive: 0.875
Cc1cc(C(C)Nc2ccccc2)c2nc(N3CCOCC3)cc(=O)n2c1 (stereo not given) | inactive: 0.975 | active: 0.774
Cc1cc(Nc2cc(N3CCN(C)CC3)nc(Sc3ccc(NC(=O)C4CC4)cc3)n2)n[nH]1 [Tozasertib (VX-680, MK-0457)] | inactive: 0.917 | inactive: 0.95
